{"source": "PubChem BioAssay (NCATS)", "key": {"[1]": {"experiment": "qHTS Assay for Lipid Storage Modulators (AID 1519)", "conditions": "Drosophila S3 cells, BODIPY lipid droplet/cell ratio, laser cytometry, cells loaded with oleic acid", "summary_of_the_method": "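Cells seeded at 5,000 per well were treated with compounds over a concentration series and loaded with oleic acid (400 uM, as added). Lipid droplet fluorescence (488 nm excitation, 500-530 nm channel) was read by laser-scanning cytometry and normalized to 20 uM Triacsin C.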"}, "[2]": {"experiment": "qHTS Assay for Modulators of Human Peripheral Myelin Protein 22 (PMP22) Expression/Activity (AID 1967)", "conditions": "Cell-based PMP22 reporter, dual-color luciferase ratio; measured here: red reporter channel AC50; EF-alpha promoter control reporter in MSC80 mouse Schwann cells", "summary_of_the_method": "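Mouse MSC80 Schwann cells carrying Pmp22 promoter–green click beetle luciferase plus EF-alpha–red luciferase control, dosed 24 h at 37 °C. Dual-filter luminescence, overlap-corrected; %Activity from green/red ratio normalised to untreated cells, concentration-response curves fitted.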"}, "[3]": {"experiment": "qHTS Validation Assay to Find Inhibitors of Chronic Active B-Cell Receptor Signaling (AID 485345)", "conditions": "ABC-DLBCL cells, chronic BCR signaling reporter; measured here: CBR control luciferase (viability counter)", "summary_of_the_method": "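TMD8 ABC-DLBCL cells with dox-inducible green luciferase–IκBα fusion and red native luciferase; compounds 46 uM–3 nM, 4 h at 37C with doxycycline in 0.5% FBS IMDM. Green/red ratio normalized to basal and 10 uM MG-132.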"}, "[4]": {"experiment": "qHTS drug screen for cell cycle checkpoint inhibitors in PARPi-resistant BRCA-mutant ovarian cancer cell lines. (AID 1963452)", "conditions": "PEO1/OlaR viability, CellTiter-Glo luminescence, 96 h; measured here: PEO4 viability", "summary_of_the_method": "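PEO1, PEO4 and PEO1/OlaR ovarian cancer cells, 600 per well, exposed 96 h at 37C to a dilution series. Viability read by CellTiter-Glo luminescence, normalized to DMSO and empty wells; activity summarized as Z-AUC.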"}, "[5]": {"experiment": "qHTS assay for small molecule antagonists of peroxisome proliferator-activated receptor delta signaling (AID 588535);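 for all read-outs here: cells co-treated with a PPAR-delta agonist as stimulator during compound exposure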", "conditions": "HEK293T PPARd-UAS-bla, beta-lactamase FRET ratio, 18 h; 460 nm channel", "summary_of_the_method": "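Compounds tested in titration on PPAR-delta-UAS-bla HEK293T cells grown in charcoal/dextran-stripped serum (2%); beta-lactamase activity read via CCF4 emission at 460 and 530 nm.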"}, "[6]": {"experiment": "qHTS assay for small molecule agonists of retinoid X receptor alpha signaling (AID 588544)", "conditions": "HEK293T RXRa-UAS-bla, beta-lactamase reporter, 18 h; 530 nm emission"}, "[7]": {"experiment": "qHTS for identification of novel therapeutic agents for treatment of microphthalmiaassociated transcription factor (MiT) renal cell carcinoma (RCC) (AID 1963991)", "conditions": "CellTiter-Glo, 48 h; for z-score: stronger effect = lower value", "summary_of_the_method": "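Curves over 11 concentrations were fitted to CellTiter-Glo luminescence, scaled between empty wells (0%) and DMSO (100%) viability. Cells were UOK109, UOK124 and UOK145 TFE3-fusion RCC lines at 500/well, exposed 48 hours at 37 C.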"}, "[8]": {"conditions": "measured here: cell count channel max response"}, "[9]": {"conditions": "measured here: cell number channel AC50"}, "[10]": {"conditions": "measured here: lipid (BODIPY) channel AC50"}, "[11]": {"conditions": "measured here: lipid channel max response"}, "[12]": {"conditions": "TFE3-RCC UOK109 viability, measured here: UOK109 Z-AUC"}, "[13]": {"conditions": "TFE3-RCC viability, measured here: UOK124 Z-AUC"}, "[14]": {"conditions": "TFE3-RCC viability, measured here: UOK145 Z-AUC"}, "[15]": {"conditions": "TFE3-RCC viability, measured here: UOK145 cell viability"}}, "note": "Where “and” joins values, the source holds several entries; their conditions need not be identical. Equal entries are not always repeated. The list shows a part of the results. Further columns of the screen follow, without active or inactive calls. For some of these results: The list favours compounds with an active or inconclusive main result. For some of these results: Words in brackets tell the shape of the fitted curve; partial curves, single points and poor fits give uncertain potencies. Tags give direction and shape of the fitted curve."}
{"smiles": "COc1ccccc1OCC(O)CN1CCN(CC(=O)Nc2c(C)cccc2C)CC1", "note": "(stereo not given)", "values": [{"measurement": "max response", "setting": "[1]; [8]", "value": 44.2, "unit": "%"}, {"measurement": "AC50", "setting": "[1]; [9]", "value": "44.7 µM [rising, partial curve, poor fit]"}, {"measurement": "AC50", "setting": "[1]; [10]", "value": "39.8 µM [rising, partial curve, poor fit]"}, {"measurement": "max response", "setting": "[1]; [11]", "value": 49.6, "unit": "%"}, {"measurement": "AC50", "setting": "[2]", "value": "75.7 µM [falling, partial curve]"}, {"measurement": "AC50", "setting": "[3]", "value": "16.4 µM [rising, partial curve]"}, {"measurement": "AC50", "setting": "[4]", "value": "0.049 µM [rising, full curve, poor fit]"}]}
{"smiles": "COc1c2occc2cc2ccc(=O)oc12", "values": [{"measurement": "max response", "setting": "[1]; [8]", "value": "27.7% and 129%"}, {"measurement": "AC50", "setting": "[1]; [9]", "value": "1.41 µM [rising, full curve]"}, {"measurement": "AC50", "setting": "[1]; [10]", "value": "4.47 µM [rising, partial curve, poor fit] and 1 µM [rising, full curve]"}, {"measurement": "max response", "setting": "[1]; [11]", "value": "54.7% and 168%"}, {"measurement": "max response", "setting": "[5]", "value": 48.6, "unit": "%"}, {"measurement": "max response", "setting": "[6]", "value": 3.61, "unit": "%"}, {"measurement": "AC50", "setting": "[4]", "value": "24.5 µM [rising, single point]"}]}
{"smiles": "CC(C)NCC(O)c1ccc(NS(C)(=O)=O)cc1", "note": "(stereo not given)", "values": [{"measurement": "max response", "setting": "[1]; [8]", "value": 4.01, "unit": "%"}, {"measurement": "AC50", "setting": "[1]; [9]", "value": "0.112 µM [falling, full curve, poor fit]"}, {"measurement": "AC50", "setting": "[1]; [10]", "value": "0.112 µM [falling, full curve, poor fit]"}, {"measurement": "max response", "setting": "[1]; [11]", "value": 2.95, "unit": "%"}, {"measurement": "z-score", "setting": "[7]; [12]", "value": 0.57}, {"measurement": "z-score", "setting": "[7]; [13]", "value": 0.521}, {"measurement": "z-score", "setting": "[7]; [14]", "value": 1.77}, {"measurement": "AC50", "setting": "[7]; [15]", "value": "13.2 µM [falling, partial curve, poor fit]"}]}
{"smiles": "COc1ccc([C@@H]2CNC(=O)C2)cc1OC1CCCC1", "values": [{"measurement": "max response", "setting": "[1]; [8]", "value": "31% and 34.5% and 99.6%"}, {"measurement": "AC50", "setting": "[1]; [9]", "value": "28.2 µM [rising, single point] and 15.8 µM [rising, partial curve, poor fit] and 39.8 µM [rising, single point]"}, {"measurement": "AC50", "setting": "[1]; [10]", "value": "31.6 µM [rising, single point] and 28.2 µM [rising, partial curve, poor fit] and 39.8 µM [rising, partial curve, poor fit]"}, {"measurement": "max response", "setting": "[1]; [11]", "value": "49.5% and 44.1% and 116%"}, {"measurement": "z-score", "setting": "[7]; [12]", "value": -0.755}, {"measurement": "z-score", "setting": "[7]; [13]", "value": 0.226}, {"measurement": "AC50", "setting": "[7]; TFE3-RCC viability, measured here: UOK124 cell viability", "value": "37.2 µM [falling, single point]"}, {"measurement": "z-score", "setting": "[7]; [14]", "value": 0.213}, {"measurement": "AC50", "setting": "[7]; [15]", "value": "5.26 µM [falling, full curve]"}]}
{"smiles": "O=C1N(c2ccccc2)c2ccccc2C1(Cc1ccncc1)Cc1ccncc1", "values": [{"measurement": "max response", "setting": "[1]; [8]", "value": "94.5% and 8.11%"}, {"measurement": "AC50", "setting": "[1]; [9]", "value": "3.16 µM [rising, full curve] and 794 nM [falling, full curve, poor fit]"}, {"measurement": "AC50", "setting": "[1]; [10]", "value": "3.16 µM [rising, full curve] and 794 nM [falling, full curve, poor fit]"}, {"measurement": "max response", "setting": "[1]; [11]", "value": "125% and 10.3%"}, {"measurement": "AC50", "setting": "[3]", "value": "18.4 µM [falling, single point]"}, {"measurement": "z-score", "setting": "[7]; [12]", "value": 0.534}, {"measurement": "z-score", "setting": "[7]; [13]", "value": 0.628}, {"measurement": "z-score", "setting": "[7]; [14]", "value": 0.586}, {"measurement": "AC50", "setting": "[7]; [15]", "value": "20.9 µM [falling, partial curve, poor fit]"}]}
